# In PubChem BioAssay AID1745853 (National Center for Advancing Translational Sciences (NCATS), 2022):
# The other results are listed elsewhere or left out. Further columns of the screen follow, without active or inactive calls.
# Experiments:
# Assay in all cases: Primary Screen for Target Class Profiling of Small Molecule Inhibitors of Methyltransferases
# [1] = target: Glycine N-methyltransferase (Homo sapiens) (UniProt Q14749); conditions: purified enzyme, MTase-Glo SAH luminescence; measured here: GNMT inhibition; at 40 µM; stronger effect = lower value
# Summary of the method: (§1)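 Each enzyme was reacted with SAM and its substrate, with compounds tested once at 40 uM; SAH formed was read by MTase-Glo luminescence.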
# [2] = target: Guanidinoacetate N-methyltransferase (Homo sapiens) (UniProt Q14353); conditions: purified enzyme, MTase-Glo SAH luminescence; measured here: GAMT inhibition; at 40 µM; stronger effect = lower value
# Summary of the method: as §1
# [3] = target: Histamine N-methyltransferase (Homo sapiens) (UniProt P50135); conditions: purified enzyme, MTase-Glo SAH luminescence; measured here: HNMT inhibition; at 40 µM; stronger effect = lower value
# Summary of the method: as §1
# [4] = target: Nicotinamide N-methyltransferase (Homo sapiens) (UniProt P40261); conditions: purified enzyme, MTase-Glo SAH luminescence; measured here: NNMT inhibition; at 40 µM; stronger effect = lower value
# Summary of the method: as §1
# [5] = target: Phenylethanolamine N-methyltransferase (Homo sapiens) (UniProt P11086); conditions: purified enzyme, MTase-Glo SAH luminescence; measured here: PNMT inhibition; at 40 µM; stronger effect = lower value
# Summary of the method: as §1
# % is set by controls: 0 for no effect and ±100 for the full control effect.
SMILES,"activity change, negative = inhibition [1] [%]","activity change, negative = inhibition [2] [%]","activity change, negative = inhibition [3] [%]","activity change, negative = inhibition [4] [%]","activity change, negative = inhibition [5] [%]"
CC(C)CCN1C(=O)c2cc3ccccc3n2CC1(C)C(=O)NC1CCCCCC1 (stereo not given),6.76,1.09,6.43,6.58,-3.75
Cc1cc(C(=O)N2CCn3nc(C(C)O)cc3C2)c2ccc(F)cc2n1 (stereo not given),8.78,0.18,3.04,-6.85,0.123
N#Cc1ccc(Oc2ccc3c(c2)COB3O)cc1,-4.64,-0.385,8.68,-13.3,2.42
COc1ccc2cc3n(c2c1)CC(C)(C(=O)NC1CCCCCC1)N(CCN1CCCC1)C3=O (stereo not given),3.44,5.08,-0.674,1.38,0.429
O=C(Cn1nc2n(Cc3ccc(F)cc3)c(=O)c3ccccc3n2c1=O)NCc1ccccc1,0.264,0,4.49,-0.332,-1.95
COc1ccc2cc3n(c2c1)CC(C)(C(=O)NCCCN1CC(C)CC(C)C1)N(C1CCCCC1)C3=O (stereo not given),3.04,1.17,2.18,6.75,2.54
CC(C)Cn1c(=O)c2ccccc2n2c(CCC(=O)Nc3ccc(F)cc3)nnc12,-7.61,0.61,-3.31,-11.9,-8.95
CCn1c(=O)c2cc(C(N)=O)c(N)nc2n(C2CC2)c1=O,–,-2.57,–,-13.5,4.8
CCCCN1C(=O)c2cc3c(OC)ccc(OC)c3n2CC1(C)C(=O)NC1CCCC1 (stereo not given),-4.32,0.618,5.16,3.55,0.221
O=C(Cn1ccc2cc(S(=O)(=O)N3CCCCC3)ccc21)NCc1ccccc1Cl,2.01,1.21,3.91,-3.92,-0.28
CN(C)C1CCN(C(=O)c2ccc(NC(=O)Nc3nc(N4CCOCC4)nc(N4CCOCC4)n3)cc2)CC1,-0.106,–,7.82,–,–
Cc1ccc(CNC(=O)C2(C)Cc3ccccc3C(=O)N2Cc2cc(F)cc(F)c2)cc1 (stereo not given),13.1,1.52,12.6,4.59,10.4
C=CC(C)(O)CC/C=C(\C)COC1O[C@H](CO)[C@@H](O)[C@H](O)[C@H]1O (stereo not given in full),0,-11.2,4.92,-23,-11.6
COc1cccc(CN2C(=O)c3ccc(-c4ccco4)n3CC2(C)C(=O)NCc2ccc(Cl)cc2)c1OC (stereo not given),-7.08,-11.3,-0.368,-13.5,-8.71
COC(=O)C1=CO[C@@H](O[C@@H]2O[C@H](CO[C@@H]3O[C@H](COC(=O)/C=C/c4ccc(O)cc4)[C@@H](O)[C@H](O)[C@H]3O)[C@@H](O)[C@H](O)[C@H]2O)[C@@H]2C(CO)=CC[C@H]12,4.58,8.64,9.5,-3.45,8.11
Cc1cccc(CCNC(=O)c2cc3n(n2)CC(C)(C(=O)NCc2ccc(F)cc2)N(C)C3=O)c1 (stereo not given),6.23,0,-6.14,6.69,6.16

SMILES,"activity change, negative = inhibition [1] [%]","activity change, negative = inhibition [2] [%]","activity change, negative = inhibition [3] [%]","activity change, negative = inhibition [4] [%]","activity change, negative = inhibition [5] [%]"
Cc1cc2[nH]c(=O)[nH]c2cc1S(=O)(=O)N1CCN(Cc2ccccc2)CC1,13,2.98,11.7,-1.25,5.73
O=C(CCc1nnc2ccc(NCc3ccccc3Cl)nn12)NCC1CCCO1 (stereo not given),-3.26,1.36,3.05,-0.329,3.55
COc1ccccc1CNC(=O)C1(C)Cn2nc(-c3ccccc3)cc2C(=O)N1c1ccc(C)c(Cl)c1 (stereo not given),0.041,4.78,0.87,6.16,-1.36
COCCc1noc(C2Cc3ccccc3N2C(=O)Cc2ccc(OC)c(OC)c2)n1 (stereo not given),-4.73,-1.98,-1.04,-9.37,3.57
CCCCCC(=O)N(c1ccc(OC)cc1)S(=O)(=O)c1ccc2c(c1)n(C)c(=O)n2C,4.55,-24.4,6.81,-5.9,1.8
Cc1cc(N2C(=O)Cn3cccc3C2C(=O)NC2CCCC2)ccc1Br (stereo not given),7.28,0,4.93,1.35,1.64
CC(C)CCn1c(=O)c2ccc(C(=O)NC(C)C)cc2n2c(=O)[nH]nc12,-6.93,0,3.71,-7.01,-2.46
OC1C=C2C3CN(Cc4cc5c(cc43)OCO5)C2CC1O (stereo not given),4.7,2.71,10.5,-7.28,3.79
COC(=O)/C=C/C(=O)N(O)CCCCNCc1ccc(COC(=O)Nc2cccc3ccccc23)cc1,-20.9,6.93,-10.1,-8.93,4.11
COc1ccc(N2CCN(C(=O)c3cc(NC(C)=O)cc4nc(C)ccc34)CC2)cc1,-13,-6.26,-73.7,-10.9,-5.98
CC1CCC23COC(=O)C2=CC(O)CC3C1(C)CCC1=CC(O)OC1=O (stereo not given),-0.342,-3.2,-1.27,-13.7,4.07
CC1(C(=O)NC2CCCCCCC2)Cn2c(cc3occc32)C(=O)N1CCCN1CCOCC1 (stereo not given),2.62,5.29,4.86,-1.54,1.74
CC(=O)N[C@H]1CN(S(=O)(=O)c2ccc(C)c(F)c2)C[C@@H]1C(C)C,-1.42,3.55,1.66,1.46,1.93
CCOC(=O)c1cc2n(n1)CC(C)(C(=O)NCc1ccccc1OC)N(c1ccc(C)cc1C)C2=O (stereo not given),1.34,2.57,6.29,1.91,1.49
C=C(C(=O)O)C1CCC(C)C2CCC(=O)OC2(C)C1 (stereo not given),2.19,0.61,8.84,-9.3,0.179
